Measured values reported in the supplement of paper PMC11417369.
Some of the results follow.

Test system: PfAP2-HC AP2 domain (GST-tagged)
Experiment: gcPBM binding intensity (ln(normalized median fluorescence intensity)); higher = stronger DNA binding
How it was run: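 Each value is the highest Masliner-normalised natural-log median intensity across replicate spots of either orientation of a probe. The probes were primer-extended double-stranded 36-bp intergenic genomic sequences on an Agilent 4 × 180k array, alongside negative controls, exposed for 1 h to GST-tagged P. falciparum DNA-binding domains expressed in E. coli. Bound protein was picked up with Alexa488 anti-GST antibody and scanned at 488 nm.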

| Sequence | gcPBM binding intensity (ln) |
| --- | --- |
| AAGTATTATTATAAGACACACATGTATTTAAGTATA [CACACA_site4922] | 9.9 |
| AATACATATTCAAAGGTGCAAAATAAAAATATACAT [GTGCAC_site9743] | 9.89 |
| TTATAATAAGATTGTTGTACTTATATTCCTTCTATA [XGTACX_site3173] | 9.64 |
| TGTTTTGTATATATAGCATGCAGTAAGGGAAAAAAA [TGCATGCA_site652] | 9.45 |
| TAGTTATAAGAGTTACAAAGAATACCGGAAATATAG [CACACA_negctrl_site1829] | 9.76 |
| TCGTTTCATATTTATCATGAGATAATCACACGAACA [TGCATGCA_negctrl_site497] | 9.36 |
| CTCCATATGAAACACACACACAAATGAAAAAAATAT [CACACA_site3018] | 11 |
| AATTAACAAAGACACACACACACACGCACAAAAAAA [CACACA_site6388] | 10.7 |
| TTTAAAAAAATATATACACACATATATATATATATA [CACACA_site617] | 9.68 |
| ATAGAAATAAAATAAAATAAAAAAAAAATAATGAAA [CACACA_negctrl_site1565] | 9.77 |
| ATATATAATAAATACACACACATGTATTTATAAATA [CACACA_site5135] | 9.9 |
| TGAATTATAAATTATAGTACTTTATAATATGAACAT [XGTACX_site2317] | 9.55 |
| ATATAAATAAATTAGTGAAAAAAAAAAAATTTTTTT [CACACA_negctrl_site945] | 9.48 |
| TCTGTGCACGCATGAAGTACAAAAAAGGTTTCCAGT [XGTACX_site5049] | 9.71 |
| CTATATACTAAATGCACACTTATATATTTATATATA [CACACA_site2454] | 9.75 |
| TATATTTTTTTAATATGTACATATATATATAAAACA [XGTACX_site2171] | 9.39 |
| CATATATATATATATTGTACAAGATTGTTTTTTTAT [XGTACX_site3913] | 9.68 |
| ATGATCATAAGACACACACACAAAAAAAAAAAAAAA [CACACA_site6936] | 10.1 |
| TTATATATCTATAATACACACATAATAATATATTTA [CACACA_site7423] | 9.59 |
| GCTACGTAAAAAATATGTACATATGAAATATTTTGC [XGTACX_site5111] | 9.54 |
| TTTCATTGGTTTATAAAATTATGAGATCTTAAAGAC [CACACA_negctrl_site1484] | 9.36 |
| TCTGTAAAGTAATGGACACACAATATATCCATTTAT [CACACA_site1536] | 9.83 |

| Sequence | gcPBM binding intensity (ln) |
| --- | --- |
| ATATATATATATATATGTACATATATTTATATTTAT [XGTACX_site6179] | 9.56 |
| GAATAATATGGACATACACACATATACATACAGATA [CACACA_site5200] | 10.5 |
| ATGCATAAATTTTGAAGTACAAAAAAAAAAAATAAA [XGTACX_site7282] | 9.51 |
| ATACATATATAAATACGTACATATATAATTATATAT [XGTACX_site8178] | 9.75 |
| AAATGAGAAGAAATACGTACATATAATAAAATAATT [XGTACX_site4439] | 9.79 |
| CATGTAATATTAAACACACACTCATATAACTCAATA [CACACA_site4212] | 10.1 |
| CACATATACTTCTGTGCACACGAATATTTTTCTTCT [CACACA_site1408] | 10 |
| AAAATATAATATAATGCACACATAAACAAAAAAAAA [CACACA_site8161] | 9.96 |
| TTTTTTTTTTTTTTGGGTACATAATAATAACAAGTG [XGTACX_site1034] | 9.23 |
| TTTTATTTAACTCATAATTTTTTAAAAAACAATTAT [XGTACX_negctrl_site19] | 9.56 |
| CATACAGTATTATACTGTACCCATACAAAAAAATAT [XGTACX_site6130] | 9.6 |
| AAATAAAAAAAATTTGCACACCTTCAAAGTAATATA [CACACA_site1583] | 9.71 |
| CTTATTTAAGAGTATGAACACACATCATACACATAT [CACACA_site9205] | 10 |
| TTTTTAATATTCTATGCATGCATCGCATATTTGGTT [TGCATGCA_site1004] | 9.74 |
| TTAACATTATATGAAGGTACAGAAAAAAAAAAATTA [XGTACX_site8530] | 9.52 |
| TTTCTTATAGATTTTAATCCTCTATCAAAAAAAGAA [GTGCAC_negctrl_site162] | 9.01 |
| AACAAATAAAGCTATGACATGTTAAAATTGTTTCAC [XGTACX_negctrl_site67] | 9.75 |
| ATATCTAAATATATTACACACAGATATCTTCCTATA [CACACA_site3701] | 9.87 |
| ATAAAGGAATTTTATACACACAACATATAAATATAT [CACACA_site7365] | 9.88 |
| AGAGAAAAATATTTGGACAAAAATAATATAATATAT [CACACA_negctrl_site656] | 9.58 |
| ATTCGTATGAGCATAACACACAATATCGATATTTCT [CACACA_site4165] | 9.88 |
| TCTTTTCAATTATCCTATATTCTTTTATTTTTAATT [GTGCAC_negctrl_site326] | 9.79 |

| Sequence | gcPBM binding intensity (ln) |
| --- | --- |
| CATACACCCATACATACACACATACATACACCCATA [CACACA_site5124] | 10.4 |
| ATAAAACAACAAAGAAAATGAAAAAGTAAAAACATA [CACACA_negctrl_site596] | 9.85 |
| TATTTATAAAAAGATTGTACATTTTTTATTATTGTA [XGTACX_site6016] | 9.4 |
| TCCTATAATAACGTCACACATTAAATTTAATAAATT [CACACA_site4506] | 9.59 |
| TATACAAAATATTTTACACACACATATATATACATA [CACACA_site2616] | 10.1 |
| CATTATTTATTTTAATGTACTTATTTTTAAATTGGT [XGTACX_site8038] | 9.54 |
| AAAAAAAAAAAAAAAACACACATATATCTATAATAT [CACACA_site6665] | 9.84 |
| AGTGCATACATGAATTGTACTTTAAAATAAATTCTA [XGTACX_site8156] | 9.56 |
| AATTAAAATACAAATGTATGCATGTCTCATATAGAA [TGCATGCA_site822] | 9.71 |
| TTACGAATTACATATTGTACATATGCACAATTTTAA [XGTACX_site6802] | 9.63 |
| TACATAATTTAAAATTTTATAAGTTGTAATTCGTTT [XGTACX_negctrl_site308] | 9.47 |
| TAAGACATGATATATACACACCTTGTTTTAATTTTC [CACACA_site5282] | 9.81 |
| AGAAATTATAAATACCTACACACTTATCAAAATAAA [CACACA_site2264] | 10 |
| TATATCTGTAAATGCACACATATGTGGATATACTTA [CACACA_site5013] | 9.78 |
| GTTCATTCATTTTAATGTACAAATTTAACTTTTTCT [XGTACX_site680] | 9.64 |
| TATAAATATAAATACACACACATATAGATTATAGAT [CACACA_site6429] | 10.5 |
| TGCTACATTCTATGTACACACATATACATATATATA [CACACA_site893] | 9.86 |
| TCTAATAATATATACACACACATATATATTTATATA [CACACA_site2032] | 10.2 |
| GATAAAGTAAAAATATGTACATATATATTTTAAGTT [XGTACX_site6439] | 9.89 |
| AATACTTTTTTCTGTACACACTTGATTTACTATAAT [CACACA_site5544] | 10.1 |
| TTCATATTCGATAAAGTGCATTAATTTTATTTATCA | 9.36 |
| TCCAATTGTTCTAGTGTGCACATAAATAAATCTCAT | 9.87 |

| Sequence | gcPBM binding intensity (ln) |
| --- | --- |
| TATTAATGCAAATGTTATATGTGCATACATAAATGT [CACACA_negctrl_site790] | 9.54 |
| TATTACATACATATCTGTACATATATTAATGCACAA [XGTACX_site3315] | 9.6 |
| AAAAATATTAAAAAAGGTACACAGCATATCTCTTTT [XGTACX_site65] | 9.77 |
| AAGAGTTAAAAAAATACACACATATAGATTTTTTTA [CACACA_site7018] | 9.8 |
| ATAAATAAAAAAGAAAGAAAGAAAGAAACAAACAAA [CACACA_negctrl_site1198] | 9.74 |
| TTTTTTTCTTTTTACATACACACAAAAAAATAAAAT [CACACA_site580] | 9.52 |
| AGCACATTATTCAAAAGTACAAATAGGTATTGTATA [XGTACX_site6107] | 9.59 |
| AATATAAAAAAAAAAAAAAAAAAAAAAAAAAAGACA [CACACA_negctrl_site983] | 9.77 |
| TTGTTAATATGATAAAAGAGGAATATTCTCTTCCTA [GTGCAC_negctrl_site659] | 9.11 |
| TAAAAAAAAACTCATGCACACAATATTATGAAAAAG [CACACA_site665] | 9.87 |
| AAATATTATGTACGCACACACATTTTTAATATATAA [CACACA_site3851] | 10 |
| TTATTTACAACTTCAAATTATGTGTAATACTACTAT [CACACA_negctrl_site741] | 9.72 |
| AAATTAATGTATATGTGAAGCAAGGGATGCGGCAGA [CACACA_negctrl_site406] | 10 |
| ATATATATATATATATAATATATAATATATATATAT [CACACA_negctrl_site96] | 9.64 |
| CAATTATTGTAATGCATGCACTGAATATAAAAAGAA | 9.75 |
| TTTATATGTATTAAGTGTACACATATAATGTATTTT [XGTACX_site16] | 9.73 |
| TTTCATATCTTGTCAAGTACATATTTTTATTTTCTT [XGTACX_site2160] | 9.82 |
| AAAAAATATAATAATTGTACACATGCACACACAAAT [XGTACX_site1563] | 10.2 |
| ACTTAATATCGGTACACACACAAGATAAGAATTATG [CACACA_site894] | 10 |
| AGAGGAGTAAAACAAAACAAAGAGAAATAAACACAC [XGTACX_negctrl_site386] | 10 |
| AATTAATAAATATTATATGTTAATATTTTTTTTGTT [CACACA_negctrl_site1692] | 9.51 |
| ATACTAAAAATGAATGTACACATATATATATATATA [TGCATGCA_negctrl_site209] | 9.82 |
